# Experimental data from the supplement of paper PMC3724861.
# Some of the results follow.
# System: T1, Caupolican (Caup) homeodomain DNA-binding domain
# T1 sequence: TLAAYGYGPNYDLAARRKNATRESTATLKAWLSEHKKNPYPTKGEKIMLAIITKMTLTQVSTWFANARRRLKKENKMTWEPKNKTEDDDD
# Assay: PBM E-score (8-mer, recovered from the published 9-mer minima) (E-score (dimensionless, -0.5 to 0.5)); Drosophila protein; higher = stronger relative binding preference, active = 0.31 or more
# Procedure, shortened: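 An enrichment score, with higher meaning stronger, expresses relative binding preference for each short DNA word. The protein used was Caup's homeodomain DNA-binding domain (residues 214-303), produced by in vitro transcription and translation and tested at 100 nM on custom-designed protein binding microarrays. The 8-mer values were recovered from published 9-mer scores, each equal to the lower of its two constituent 8-mer scores.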
row,Sequence,PBM E-score
1,GATAGTTA,inactive: 0.113
2,AATTCGAA,inactive: 0.104
3,CTGGTCGA,inactive: -0.0873
4,AGGAGCAA,inactive: -0.141
5,AGTATGCC,inactive: -0.0118
6,CATGGATC,inactive: -0.0478
7,CTAGCTCA,inactive: -0.0432
8,AGAATTCC,inactive: -0.0348
9,GACCTTGA,inactive: -0.0409
10,AGACGTTA,inactive: 0.0584
11,AAACATCA,inactive: 0.279
12,AGGTAGGG,inactive: -0.0801
13,ACTTCGAG,inactive: -0.0774
14,ATCGGCTC,inactive: -0.0107
15,ACACTTGG,inactive: 0.0202
16,GGTGCCAA,inactive: -0.0596
17,AAGTTCGG,inactive: -0.0146
18,CTGGACCA,inactive: 0.0005
19,AAGAGATG,inactive: 0.104
20,CACTATTC,inactive: 0.0377
21,CATGCACG,inactive: 0.126

row,Sequence,PBM E-score
1,AAGGATGA,inactive: -0.0152
2,ACGTTGAA,inactive: -0.0507
3,ATGCAACC,inactive: 0.0215
4,GCTACAAA,inactive: 0.0968
5,TGTCAGAA,inactive: 0.196
6,ACACAATC,inactive: 0.213
7,ATCGACCA,≥ 0.00221
8,CGAGAATC,inactive: 0.0473
9,AAGCCCGA,≥ -0.0775
10,AATAAGAC,inactive: 0.191
11,CGTCTAGC,inactive: -0.0601
12,CCCGCCTA,inactive: -0.0953
13,GGATTAAC,inactive: 0.0552
14,CCCCACGC,inactive: -0.311
15,ATGAGCCA,≥ -0.00819
16,CGCCGCTC,inactive: -0.266
17,ATGATATC,inactive: 0.137
18,CAGACGGG,inactive: -0.128
19,AAATCCCG,inactive: -0.0314
20,AGGATTGC,inactive: -0.0996
21,TGATTGCA,inactive: 0.139

row,Sequence,PBM E-score
1,ACCCGCAC,inactive: -0.157
2,CAGGGATC,inactive: -0.124
3,AGGACTCG,≥ -0.00964
4,GACAAATA,inactive: 0.218
5,CGCTATAC,inactive: -0.00455
6,GCGTCAGC,inactive: -0.13
7,GCTTGCCC,inactive: -0.272
8,CAGTACGG,inactive: -0.068
9,ATGTTTTG,inactive: 0.289
10,AGGCTACC,inactive: -0.102
11,CAAACGTA,≥ 0.162
12,ACTGACCT,inactive: 0.0333
13,CTCTATCA,inactive: -0.0234
14,GGAAAACA,inactive: 0.239
15,GATTGGGC,inactive: -0.0969
16,GTACCGTA,inactive: 0.0122
17,CGATAAAC,inactive: -0.00292
18,GTCTCAGA,inactive: -0.079
19,CCAACGAC,inactive: -0.0205
20,ACCAGACC,inactive: 0.0148
